MIC of clinical C. albicans isolates, CLSI broth microdilution (ranges and time not stated); higher = less susceptible. Call: susceptible or wild type [S] / resistant or non-wild type [R] by CLSI breakpoints or epidemiological cut-offs; intermediate and dose-dependent carry no call here (the paper groups them with resistant). '<=' and '>=' mark each drug's lowest and highest value, inferred; the source prints them plain. Isolates are numbered anew.
Columns and labels:
Assay in all cases: CLSI broth microdilution.
posaconazole = compound: CC[C@@H]([C@H](C)O)n1ncn(-c2ccc(N3CCN(c4ccc(OC[C@@H]5CO[C@@](Cn6cncn6)(c6ccc(F)cc6F)C5)cc4)CC3)cc2)c1=O [posaconazole]
amphotericin B = compound: C[C@@H]1[C@H](O)[C@@H](C)/C=C/C=C/C=C/C=C/C=C/C=C/C=C/[C@H](O[C@@H]2O[C@H](C)[C@@H](O)[C@H](N)[C@@H]2O)C[C@@H]2O[C@](O)(C[C@@H](O)C[C@@H](O)[C@H](O)CC[C@@H](O)C[C@@H](O)CC(=O)O[C@H]1C)C[C@H](O)[C@H]2C(=O)O [amphotericin B]
micafungin = compound: CCCCCOc1ccc(-c2cc(-c3ccc(C(=O)N[C@H]4C[C@@H](O)[C@@H](O)NC(=O)[C@@H]5[C@@H](O)[C@@H](C)CN5C(=O)[C@H]([C@H](O)CC(N)=O)NC(=O)[C@H]([C@H](O)[C@@H](O)c5ccc(O)c(OS(=O)(=O)O)c5)NC(=O)[C@@H]5C[C@@H](O)CN5C(=O)[C@H]([C@@H](C)O)NC4=O)cc3)no2)cc1 [micafungin]
voriconazole = compound: C[C@@H](c1ncncc1F)[C@](O)(Cn1cncn1)c1ccc(F)cc1F [voriconazole]
fluconazole = compound: OC(Cn1cncn1)(Cn1cncn1)c1ccc(F)cc1F [fluconazole]
flucytosine = compound: Nc1[nH]c(=O)ncc1F [flucytosine]
itraconazole = compound: CCC(C)n1ncn(-c2ccc(N3CCN(c4ccc(OCC5COC(Cn6cncn6)(c6ccc(Cl)cc6Cl)O5)cc4)CC3)cc2)c1=O [itraconazole]
anidulafungin = compound: CCCCCOc1ccc(-c2ccc(-c3ccc(C(=O)N[C@H]4C[C@@H](O)[C@@H](O)NC(=O)[C@@H]5[C@@H](O)[C@@H](C)CN5C(=O)[C@H]([C@@H](C)O)NC(=O)[C@H]([C@H](O)[C@@H](O)c5ccc(O)cc5)NC(=O)[C@@H]5C[C@@H](O)CN5C(=O)[C@H]([C@@H](C)O)NC4=O)cc3)cc2)cc1 [anidulafungin]
caspofungin = compound: CC[C@H](C)C[C@H](C)CCCCCCCCC(=O)N[C@H]1C[C@@H](O)[C@@H](NCCN)NC(=O)[C@@H]2[C@@H](O)CCN2C(=O)[C@H]([C@H](O)CCN)NC(=O)[C@H]([C@H](O)[C@@H](O)c2ccc(O)cc2)NC(=O)[C@@H]2C[C@@H](O)CN2C(=O)[C@H]([C@@H](C)O)NC1=O [caspofungin]

| Test System | MIC (posaconazole) | MIC (amphotericin B) | MIC (micafungin) | MIC (voriconazole) | MIC (fluconazole) | MIC (flucytosine) | MIC (itraconazole) | MIC (anidulafungin) | MIC (caspofungin) |
| --- | --- | --- | --- | --- | --- | --- | --- | --- | --- |
| Candida albicans isolate 1 (Erg11p: Y132H,T123I, Fur1p: R101C, Tac1p: WT) | 0.06 mg/L [S] | 0.25 mg/L [S] | ≤ 0.008 mg/L [S] | 0.25 µg/mL | 4 µg/mL | 0.5 mg/L [S] | 0.12 mg/L [S] | ≤ 0.015 mg/L [S] | 0.015 mg/L [S] |
| Candida albicans isolate 2 (Erg11p: V437I,E266D, Fur1p: WT, Tac1p: S937L,I895T,L695F,I558V,F189S,L131I) | 0.015 mg/L [S] | 0.25 mg/L [S] | ≤ 0.008 mg/L [S] | ≤ 0.008 mg/L [S] | 0.25 mg/L [S] | ≤ 0.06 mg/L [S] | 0.03 mg/L [S] | 0.03 mg/L [S] | 0.03 mg/L [S] |
| Candida albicans isolate 3 (Erg11p: WT, Fur1p: WT, Tac1p: N896S,A717T,I558V,A377V,F189S,N174D,M170I,K87N) | 0.03 mg/L [S] | 0.25 mg/L [S] | 0.015 mg/L [S] | 0.015 mg/L [S] | 0.5 mg/L [S] | ≤ 0.06 mg/L [S] | 0.06 mg/L [S] | 0.12 mg/L [S] | 0.06 mg/L [S] |
| Candida albicans isolate 4 (Erg11p: V488I,E266D, Fur1p: WT, Tac1p: N896S,I895T) | 0.015 mg/L [S] | 0.25 mg/L [S] | ≤ 0.008 mg/L [S] | ≤ 0.008 mg/L [S] | 0.5 mg/L [S] | ≤ 0.06 mg/L [S] | 0.06 mg/L [S] | 0.06 mg/L [S] | 0.03 mg/L [S] |
| Candida albicans isolate 5 (Erg11p: E266D, Fur1p: WT, Tac1p: C908Y,A377V,N174D,M170I,I109N,K87N) | 0.03 mg/L [S] | 0.5 mg/L [S] | ≤ 0.008 mg/L [S] | ≤ 0.008 mg/L [S] | 0.5 mg/L [S] | ≤ 0.06 mg/L [S] | 0.03 mg/L [S] | ≤ 0.015 mg/L [S] | 0.03 mg/L [S] |
| Candida albicans isolate 6 (Erg11p: V437I,E266D, Fur1p: WT, Tac1p: F189S,N174D,M170I,A90T,K87N) | ≥ 8 mg/L [R] | 1 mg/L [S] | ≤ 0.008 mg/L [S] | ≥ 8 mg/L [R] | ≥ 256 mg/L [R] | ≤ 0.06 mg/L [S] | ≥ 16 mg/L [R] | ≤ 0.015 mg/L [S] | 0.03 mg/L [S] |
| Candida albicans isolate 7 (Erg11p: V437I,E266D, Fur1p: WT, Tac1p: S937L,I895T,L695F,I558V,F189S,L131I) | 0.03 mg/L [S] | 0.5 mg/L [S] | 0.015 mg/L [S] | ≤ 0.008 mg/L [S] | 0.5 mg/L [S] | ≤ 0.06 mg/L [S] | 0.03 mg/L [S] | 0.06 mg/L [S] | 0.03 mg/L [S] |
| Candida albicans isolate 8 (Erg11p: WT, Fur1p: WT, Tac1p: WT) | 0.015 mg/L [S] | 0.5 mg/L [S] | 0.015 mg/L [S] | ≤ 0.008 mg/L [S] | 0.5 mg/L [S] | ≤ 0.06 mg/L [S] | 0.06 mg/L [S] | ≤ 0.015 mg/L [S] | 0.015 mg/L [S] |
| Candida albicans isolate 9 (Erg11p: WT, Fur1p: WT, Tac1p: WT) | 0.015 mg/L [S] | 0.25 mg/L [S] | 0.015 mg/L [S] | ≤ 0.008 mg/L [S] | 0.5 mg/L [S] | ≤ 0.06 mg/L [S] | 0.03 mg/L [S] | 0.03 mg/L [S] | 0.03 mg/L [S] |
| Candida albicans isolate 10 (Erg11p: K342R,E266D, Fur1p: WT, Tac1p: I558V,A377V,F189S,N174D,M170I,K87N) | 0.015 mg/L [S] | 0.25 mg/L [S] | 0.015 mg/L [S] | ≤ 0.008 mg/L [S] | 1 mg/L [S] | ≤ 0.06 mg/L [S] | 0.03 mg/L [S] | ≤ 0.015 mg/L [S] | 0.03 mg/L [S] |
| Candida albicans isolate 11 (Erg11p: V488I,E266D, Fur1p: WT, Tac1p: N896S,I895T) | 0.015 mg/L [S] | 0.25 mg/L [S] | 0.015 mg/L [S] | ≤ 0.008 mg/L [S] | 0.5 mg/L [S] | ≤ 0.06 mg/L [S] | 0.03 mg/L [S] | 0.06 mg/L [S] | 0.06 mg/L [S] |
| Candida albicans isolate 12 (Erg11p: WT, Fur1p: WT, Tac1p: N896S) | 0.015 mg/L [S] | 0.25 mg/L [S] | 0.015 mg/L [S] | ≤ 0.008 mg/L [S] | 0.25 mg/L [S] | ≤ 0.06 mg/L [S] | 0.03 mg/L [S] | 0.06 mg/L [S] | 0.03 mg/L [S] |
| Candida albicans isolate 13 (Erg11p: WT, Fur1p: WT, Tac1p: N896S) | 0.015 mg/L [S] | 0.5 mg/L [S] | ≤ 0.008 mg/L [S] | ≤ 0.008 mg/L [S] | 0.25 mg/L [S] | ≤ 0.06 mg/L [S] | 0.03 mg/L [S] | 0.03 mg/L [S] | 0.03 mg/L [S] |
| Candida albicans isolate 14 (Erg11p: F145L,A114V, Fur1p: R101C, Tac1p: H263Y) | 0.25 mg/L [R] | 0.5 mg/L [S] | 0.015 mg/L [S] | 0.12 mg/L [S] | 16 mg/L [R] | ≤ 0.06 mg/L [S] | 0.25 mg/L [R] | ≤ 0.015 mg/L [S] | 0.03 mg/L [S] |
| Candida albicans isolate 15 (Erg11p: WT, Fur1p: WT, Tac1p: N896S) | 0.03 mg/L [S] | 0.5 mg/L [S] | 0.015 mg/L [S] | ≤ 0.008 mg/L [S] | 0.5 mg/L [S] | 0.12 mg/L [S] | 0.12 mg/L [S] | 0.12 mg/L [S] | 0.06 mg/L [S] |
| Candida albicans isolate 16 (Erg11p: A114V, Fur1p: WT, Tac1p: N896S) | ≤ 0.008 mg/L [S] | 0.25 mg/L [S] | 0.015 mg/L [S] | ≤ 0.008 mg/L [S] | 0.25 mg/L [S] | ≤ 0.06 mg/L [S] | ≤ 0.015 mg/L [S] | 0.06 mg/L [S] | 0.03 mg/L [S] |
| Candida albicans isolate 17 (Erg11p: V488I,E266D, Fur1p: WT, Tac1p: N896S) | 0.015 mg/L [S] | 0.25 mg/L [S] | 0.015 mg/L [S] | ≤ 0.008 mg/L [S] | 0.25 mg/L [S] | ≤ 0.06 mg/L [S] | 0.03 mg/L [S] | 0.03 mg/L [S] | 0.03 mg/L [S] |
